Reference: article PMC4336329 (PLoS ONE, 2015)
The campaign covered roughly 310,000 compounds. About 2,200 (0.71%) showed an effect of 50% or more. The effect is printed as a negative number. Some of the results follow.

Biological target: human ether-à-go-go-related gene (hERG) potassium channel (human, UniProt Q12809)
Assay: primary screen, population patch clamp on CHO cells stably expressing hERG

human ether-à-go-go-related gene (hERG) potassium channel, sequence (Q12809 whole entry, looked up): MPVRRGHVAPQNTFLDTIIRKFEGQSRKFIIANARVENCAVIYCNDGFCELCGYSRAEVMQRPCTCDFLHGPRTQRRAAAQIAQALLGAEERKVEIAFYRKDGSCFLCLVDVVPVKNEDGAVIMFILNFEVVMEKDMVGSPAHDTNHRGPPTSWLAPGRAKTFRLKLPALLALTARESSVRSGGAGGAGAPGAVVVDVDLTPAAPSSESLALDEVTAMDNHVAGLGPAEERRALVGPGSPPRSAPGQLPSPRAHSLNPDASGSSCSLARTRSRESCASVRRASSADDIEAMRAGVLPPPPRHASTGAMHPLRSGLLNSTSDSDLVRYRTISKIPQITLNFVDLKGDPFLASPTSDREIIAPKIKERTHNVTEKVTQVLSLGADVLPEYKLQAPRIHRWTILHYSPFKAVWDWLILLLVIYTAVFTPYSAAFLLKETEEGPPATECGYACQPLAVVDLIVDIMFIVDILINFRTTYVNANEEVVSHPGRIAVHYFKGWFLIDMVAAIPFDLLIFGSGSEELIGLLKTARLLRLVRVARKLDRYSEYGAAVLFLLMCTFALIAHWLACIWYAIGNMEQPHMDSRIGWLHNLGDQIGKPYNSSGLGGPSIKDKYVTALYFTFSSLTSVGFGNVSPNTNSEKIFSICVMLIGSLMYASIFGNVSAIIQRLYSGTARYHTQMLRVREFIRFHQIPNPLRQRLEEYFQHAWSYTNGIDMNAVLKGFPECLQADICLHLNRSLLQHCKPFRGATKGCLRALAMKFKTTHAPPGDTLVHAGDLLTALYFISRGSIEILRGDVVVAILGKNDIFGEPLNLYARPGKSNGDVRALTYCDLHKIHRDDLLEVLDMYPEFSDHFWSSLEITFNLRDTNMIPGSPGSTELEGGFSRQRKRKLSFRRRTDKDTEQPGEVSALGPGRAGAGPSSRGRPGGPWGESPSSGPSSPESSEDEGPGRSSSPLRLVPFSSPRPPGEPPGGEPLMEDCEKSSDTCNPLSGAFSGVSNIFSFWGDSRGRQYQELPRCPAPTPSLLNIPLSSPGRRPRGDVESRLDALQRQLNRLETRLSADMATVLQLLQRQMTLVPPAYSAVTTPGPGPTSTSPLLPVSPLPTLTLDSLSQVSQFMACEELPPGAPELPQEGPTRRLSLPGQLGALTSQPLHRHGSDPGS

SMILES	hERG current change (%, negative = inhibition) at 1uM
CCCCOC(=O)Cn1c(=O)n(CC(=O)OCCCC)c2cc(C)ccc21	-19%
COC(=O)C(O)(c1ccc(NC(=O)c2cccs2)cc1)C(F)(F)F (stereo not drawn)	10.7%
O=C(NCCn1c(C(F)(F)F)nc2cc(C(F)(F)F)ccc21)[C@H]1CCCN1c1nc(CN2CCCCC2)cs1	7.28%
CCOC(=O)C1(CC2CC2)CCN(C(=O)c2cc(OC)nc3ccccc23)CC1	8.24%
CCOC(=O)c1sc(-c2cccc(C(F)(F)F)c2)nc1O	11.8%
COc1ccc(NC(=S)N2CCC(c3nc4ccc(Cl)cc4[nH]3)CC2)c(OC)c1	1.15%
O=C(O)c1cc(-c2ccc(O)cc2)on1	12.4%
CCOc1ccc(CCNC(=O)COC(=O)c2ccc(OC(C)C)cc2)cc1OCC	2.25%
CCOc1ccc(CCNC(=O)C2=C(C)C(=O)OC23CCC(C)CC3)cc1 (stereo not drawn)	0.27%
CCOc1ccc(C(O)C(CN2CCOCC2)c2ccccc2)cc1.Cl (stereo not drawn)	5.12%
CC(C)(C)c1ccc(C(=O)N2CCC(=O)N(C(CO)Cc3ccccc3)CC2)cc1 (stereo not drawn)	0.432%
C=C(C)C(=O)N1CC2(CC(c3cccc(NC(=O)/C(C)=C\C)c3)=NO2)C[C@H]1C(N)=O (stereo partly drawn)	9%
C/C=C(\C)C(=O)OC1c2c(ccc3ccc(=O)oc23)OC(C)(C)C1OC(C)=O (stereo not drawn)	-54.7%
C=CCc1c(OC)ccc2c1c(S(=O)(=O)c1ccc(C)cc1)cn2COC	14.6%
Cc1oc(-c2ccccc2F)nc1CS(=O)CC(=O)NCCN1CCCCC1C (stereo not drawn)	-1.26%
CC(CC(=O)Nc1ccc(S(=O)(=O)N2CCOCC2)cc1)c1ccccc1 (stereo not drawn)	5.36%
O=C(CN1CCOCC1)Nc1ccc(S(=O)(=O)NC2CCCCC2)cc1	-3.14%
COCCCn1[nH]c2c3c(ccc2c1=O)C(=O)c1ccccc1C3=O	14.5%
Cc1cc(C)nc(N2CCC(C(=O)NC3CC3)CC2)n1	5.42%

SMILES	hERG current change (%, negative = inhibition) at 1uM
O=C(CN1CCC(NC(=O)Cc2ccccc2)CC1)Nc1cccc2ccccc12	-2.1%
Cc1ccc(-c2nnn(CC(=O)N(CC(=O)NC3CCCC3)c3cccc(F)c3)n2)o1	14.4%
CCOc1ccc(-n2c(SC(C)C)nc3c(c2=O)SCC3)cc1	13.4%
COc1ccc(N2CC(C(=O)Nc3ccc4c(c3)OCO4)CC2=O)cc1 (stereo not drawn)	9.14%
Cc1ccc(CN(Cc2cccnc2)C(=O)CN2C(=O)COc3ccccc32)o1	9.71%
CCOc1ccccc1C1C2=C(COC2=O)Nc2cc3c(cc21)OCO3 (stereo not drawn)	17.2%
CCOC(=O)C1CCN(Cc2cc(=O)n3c(-c4ccccc4)csc3n2)CC1	6.3%
CCOC(=O)C1=C(C)NC(=O)NC1c1ccc(N(CC)CC)cc1 (stereo not drawn)	-3.15%
c1ccc(CCc2nc(-c3cccnc3)no2)cc1	11.5%
Cc1nc2nc(SCC(=O)NCCCN3CCCC3)nn2c(C)c1Cc1ccccc1Cl	8.01%
CNC(=S)N(CCc1c(C)[nH]c2ccc(F)cc12)Cc1cccnc1	7.63%
Cc1ccc(N2C(=N)SCC2=O)cc1Cl	-4.51%
COC(=O)OCC12CCC(O1)C1(C)C(=O)OCC21 (stereo not drawn)	26.8%
Cc1nc2scc(C)n2c(=O)c1S(=O)(=O)NCc1ccc(F)cc1	17.3%
CC(=O)Nc1ccc(C(=O)CSc2nc3ccc(C)cc3[nH]2)cc1	3.94%
COC(=O)c1ccc(CSCC(=O)Nc2ccccc2)cc1	22.6%
Cc1ccc(Nc2nc3c([nH]2)c(=O)[nH]c(=O)n3C)cc1	8.49%
COc1ccc(C)cc1NS(=O)(=O)c1ccc(NS(=O)(=O)c2ccc(NC(C)=O)cc2)cc1	7.06%
Cc1cccc(C(=O)Oc2csc(=S)n2C(=O)c2cccc(C)c2)c1	2.37%

SMILES	hERG current change (%, negative = inhibition) at 1uM
COc1ccc(CNC(=O)COc2cccnc2[N+](=O)[O-])cc1	10.3%
O=c1cc(CO)oc(CN2CCN(c3cccc(C(F)(F)F)c3)CC2)c1O	7.69%
COc1c(C)cc(Br)cc1C(=O)NC(=S)Nc1ccc(Cl)c(C(=O)O)c1	19.1%
O=C1CC(N2CCN(Cc3ccc4c(c3)OCO4)CC2)C(=O)N1CCc1ccccc1 (stereo not drawn)	0.601%
COc1ccccc1OCC(O)CN1CCN(CC(=O)Nc2c(C)cccc2C)CC1.Cl (stereo not drawn)	12.2%
Cn1c(SCC(=O)N2CCCC2)nc2ccccc21	-3.81%
Cc1ccc(OCCn2cncn2)c([N+](=O)[O-])c1	11.2%
O=Cc1cn(CC(=O)N2CCc3ccccc32)c2ccccc12	4.42%
CCN(CC)S(=O)(=O)c1ccc(O)c(C(=O)OCC(=O)N2CCCC2)c1	11.9%
Cl.O=C(O)c1ccc(-c2nc3ccccc3[nH]2)cc1	24.9%
COC(=O)N/N=C/c1cccs1	11.8%
CC1CCCN(CCCNC(=O)c2nn(C)c3c2CS(=O)(=O)c2ccccc2-3)C1 (stereo not drawn)	2.46%
COc1ccc(C(=O)OCc2c(C)noc2C)cc1	8.95%
O=C(Nc1nnc(C(F)(F)F)s1)c1ccc(Br)s1	3.86%
Cc1ccc2c(c1)Oc1ccc(NC(=O)CCCl)cc1C(=O)N2	3.94%
CC(C)N=c1scc(-c2cccs2)n1/N=C/c1ccc(O)c(O)c1O	7.43%
COc1ccc(C2CC(c3ccccc3)Nc3nc(N)nn32)cc1 (stereo not drawn)	6.98%
CCC(c1nnnn1Cc1cccs1)N1CCN(c2nc3ccccc3s2)CC1 (stereo not drawn)	-26.9%
COc1ccc(-c2cc(C(=O)N3CCN(Cc4ccccc4)CC3)no2)cc1OC	2.95%
